Out of some 360,000 compounds screened, about 11,000 (3.1%) were called active. The inconclusive results got no clear call from the source; some entries with a clear call stand among them for comparison. Calls follow the shape of the dose curve; as a rule, active = well fitted inhibition curve with a large enough effect; inconclusive = small, poorly fitted or top-dose-only effect; inactive = no such curve, though single readings can be large or run the other way. Potencies of inconclusive entries are left out as doubtful fits.
The compounds below were run against Schistosoma mansoni thioredoxin glutathione reductase (TGR) (UniProt Q962Y6) (assay: qHTS Assay for the Inhibitors of Schistosoma Mansoni Peroxiredoxins). Settings: purified TGR, DTNB reduction, TNB absorbance 405 nm; activity change, negative = inhibition: at 114 µM (top of the series) unless noted.
How it was run: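 TGR 20 nM + NADPH 100 uM (dispensed conc.), cpd preinc 15 min RT; start with NADPH (500 uM addition) then DTNB (15 mM addition). Kinetic TNB absorbance, 405 nm filter. Four-parameter Hill fit across titration.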
`O=C(COC(=O)CC1CC2CCC1C2)Nc1ccc(Cl)c(S(=O)(=O)N2CCOCC2)c1` (stereo not drawn) was tested, and the Potency was inconclusive [inhibitor, partial curve, poor fit]. With `COc1ccc(C(=O)NC(=S)SCC(=O)O)cc1` the Potency was inconclusive [inhibitor, partial curve]. With `Cc1nc(Nc2ccc3c(c2)OCCO3)c2c(C)c(C)sc2n1` the “activity change, negative = inhibition” value was inactive: 0.33%. In the case of `CCC(Sc1nc2ccncc2[nH]1)C(=O)Nc1ccc(F)cc1` (stereo not drawn), the “activity change, negative = inhibition” value is reported as inactive: -9.61%. `O=c1[nH]c2cc3c(cc2cc1C(c1nnnn1CC1CCCO1)N1CCCCCC1)OCO3` (stereo not drawn) was tested, and the Potency was inconclusive [inhibitor, partial curve]. In the case of `Cc1cc(C)c2[nH]c(=O)c(CN(Cc3cccnc3)C(=S)NCCCN(C)C)cc2c1`, the Potency is reported as inconclusive [inhibitor, partial curve]. In the case of `COC(=O)c1cc(N2C(=O)C3C(C2=O)C2(C)C=CC3(C)O2)ccc1Cl` (stereo not drawn), the Potency is reported as inconclusive [inhibitor, full curve, poor fit]. In the case of `OCCCc1nc2ccccc2n1CCc1ccccc1`, the “activity change, negative = inhibition” value is reported as inactive: -15.4%. With `Cc1noc(NS(=O)(=O)c2ccc(NC(=O)CS(=O)(=O)c3ccccc3)cc2)c1C` the “activity change, negative = inhibition” value was inactive: -32.5%. In the case of `CCOC(=O)C1(Cc2cccc(F)c2)CCN(C(=O)c2ccoc2C)CC1`, the Potency is reported as inconclusive [inhibitor, partial curve]. For `CCc1ccc(CNc2ccc(O)cc2)cc1`, the Potency was active: 22.4 µM. For `CC1CCN(S(=O)(=O)c2ccc3c(c2)N(CC(=O)NCCc2ccc(Cl)cc2)C(=O)CO3)CC1`, the “activity change, negative = inhibition” value was inactive: -2.33%. With `CCCn1c(SCC(=O)NC(=O)NCc2ccco2)n[nH]c1=O` the Potency was active: 39.8 µM. For `Cc1ccc(S(=O)(=O)CCC(=O)Nc2nc(C(C)(C)C)cs2)cc1`, the Potency was inconclusive [inhibitor, full curve]. With `Cc1cccc(CSc2nn3c(=O)c(C)nnc3s2)c1` the Potency was inconclusive [inhibitor, single point]. For `COc1cc2c(cc1OC)C1O[C@](c3ccsc3)(C2)OC2=C1C(=O)OC1(CCCCC1)C2`, the Potency was inconclusive [inhibitor, full curve, poor fit]. For `CCN1CCN(c2ccc(S(=O)(=O)N3CCCCC3)cc2NC(=O)C(C)Oc2ccc(F)cc2)CC1` (stereo not drawn), the “activity change, negative = inhibition” value was inactive: 1.62%. In the case of `C=C1C(=O)O[C@@H]2C[C@@H](C)[C@@H]3C=CC(=O)[C@@]3(C)[C@@H](OC(=O)CC(=O)O[C@H]3[C@@H]4C(=C)C(=O)O[C@@H]4C[C@@H](C)[C@@H]4C=CC(=O)[C@]43C)[C@H]12`, the Potency is reported as active: 1.12 µM. In the case of `C/C(=N/OC(=O)C1CC12CCC2)c1ccc(Br)cc1` (stereo not drawn), the “activity change, negative = inhibition” value is reported as inactive: -7.2%. `CCN(CC)CCCNC(=O)c1cc(-c2ccc(O)cc2)on1` was tested, and the “activity change, negative = inhibition” value was inactive: -30.9%. `C=C(C)CSc1nc(N)c(C#N)c(-c2ccc(C)cc2)c1C#N` was tested, and the Potency was active: 35.5 µM. `CC(=O)N1CCc2cc(S(=O)(=O)NCCC(=O)Nc3cc(C)cc(C)c3)ccc21` was tested, and the “activity change, negative = inhibition” value was inactive: -24.2%. For `COc1cccc(NC(=O)C2CC(=O)n3cnnc3S2)c1` (stereo not drawn), the Potency was active: 0.631 µM. `COC(=O)c1c(C)[nH]c(C(=O)CN2CCOCC2)c1C` was tested, and the Potency was inconclusive [inhibitor, partial curve]. With `Cc1ccc(C(C2=C(O)CC(C)(C)CC2=O)C2C(=O)CC(C)(C)CC2=O)s1` (stereo not drawn) the Potency was inconclusive [inhibitor, full curve]. For `Cc1n[nH]c(=O)c2c(NC(=O)CSc3ccccc3Cl)oc(C)c12`, the Potency was inconclusive [inhibitor, partial curve]. In the case of `O=C1CCN(Cc2ccccc2)CCN1CCSc1ccccc1`, the Potency is reported as inconclusive [inhibitor, partial curve]. For `N#CC1=C(N)N(c2ccccc2)C2=C(C(=O)CCC2)C1c1ccccc1` (stereo not drawn), the Potency was inconclusive [inhibitor, partial curve]. In the case of `Cc1cc(Br)c(OCc2ccc(C(=O)N/N=C/c3ccc[nH]3)cc2)c(Br)c1`, the Potency is reported as inconclusive [inhibitor, partial curve, poor fit]. With `C#CCOCCOCCOCCNc1nc(N2CCN(C(=O)CCCCCCCCCCNC(=O)Cn3cc(CCCCCN)nn3)CC2)nc(N2CCN(C(=O)CCCCCCCCCCNC(=O)[C@H]([C@@H](C)CC)n3cc(CCCCN=C(N)N)nn3)CC2)n1` the Potency was inconclusive [inhibitor, single point]. With `CSC1=C(C#N)C2(CCCC2)C(C#N)=C(N)N1` the Potency was inconclusive [inhibitor, partial curve, poor fit]. With `O=C1C(=O)c2ccccc2-c2ccccc21` the Potency was inconclusive [inhibitor, full curve]. In the case of `COc1ccc(C(=O)O)cc1NC(=S)NC(=O)CSc1ccc(Cl)cc1`, the Potency is reported as inconclusive [inhibitor, partial curve]. For `O=c1[nH][nH]c(=S)n1-c1ccccc1C(F)(F)F`, the Potency was inconclusive [inhibitor, partial curve]. `COc1ccc(-c2n[nH]c(=S)n2Cc2ccco2)cc1` was tested, and the Potency was inconclusive [inhibitor, partial curve]. `COc1ccc(C(=O)NC(=S)Nc2ccc(S(=O)(=O)Nc3cc(OC)nc(OC)n3)cc2)cc1` was tested, and the Potency was active: 14.1 µM. In the case of `O=C(NCCc1ccc(Cl)cc1)C1CCN(S(=O)(=O)c2ccc(Br)s2)CC1`, the “activity change, negative = inhibition” value is reported as inactive: 1.54%. With `CN(C)c1cc2c(cc1NS(=O)(=O)c1ccccc1)n(C)c(=O)n2C` the Potency was inconclusive [inhibitor, partial curve]. `COC(=O)CSc1nnc(-c2ccoc2C)n1-c1ccc(OC)cc1` was tested, and the Potency was inconclusive [inhibitor, partial curve]. With `CC(C)Oc1ccc(C(=O)NC(=S)Nc2ccc(Cl)c(C(=O)O)c2)cc1` the Potency was active: 39.8 µM. In the case of `COC(=O)[C@@]1(Cc2ccc(F)cc2)[C@H]2c3cc(C(=O)N4CCCC4)n(CCc4ccc(O)c(O)c4)c3C[C@H]2CN1C(=O)c1ccccc1`, the Potency is reported as inconclusive [inhibitor, partial curve]. `O=C(Nc1nnc(SCc2ccc(F)cc2)s1)c1ccc2ncsc2c1` was tested, and the “activity change, negative = inhibition” value was inactive: -17.2%. With `C/C(=N\N1C(=O)CSC1=S)c1ccc(Br)cc1` the Potency was inconclusive [inhibitor, partial curve].

From PubChem BioAssay AID485364 (National Center for Advancing Translational Sciences (NCATS), 2010)
% is scaled to controls: 0 for no effect and ±100 for the full control effect; potency is read from the fitted curve at half-maximal effect; tags tell the direction and shape of the fitted curve.
Also: nearly all actives have a fitted effect of over 60% in size.
